The results in this text go back to PMC4336329 (PLoS ONE, 2015).

Out of some 310,000 compounds screened, about 14,000 (4.5%) showed an effect of 50% or more. The effect is printed as a negative number. This is one part of the list.
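Note: peak tail current of the secondary pulse compared with the same well before compound.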

The assay deals with human ether-à-go-go-related gene (hERG) potassium channel (human, UniProt Q12809). The assay can be described thus: primary screen, population patch clamp on CHO cells stably expressing hERG.
Chain of human ether-à-go-go-related gene (hERG) potassium channel (Q12809 whole entry, looked up): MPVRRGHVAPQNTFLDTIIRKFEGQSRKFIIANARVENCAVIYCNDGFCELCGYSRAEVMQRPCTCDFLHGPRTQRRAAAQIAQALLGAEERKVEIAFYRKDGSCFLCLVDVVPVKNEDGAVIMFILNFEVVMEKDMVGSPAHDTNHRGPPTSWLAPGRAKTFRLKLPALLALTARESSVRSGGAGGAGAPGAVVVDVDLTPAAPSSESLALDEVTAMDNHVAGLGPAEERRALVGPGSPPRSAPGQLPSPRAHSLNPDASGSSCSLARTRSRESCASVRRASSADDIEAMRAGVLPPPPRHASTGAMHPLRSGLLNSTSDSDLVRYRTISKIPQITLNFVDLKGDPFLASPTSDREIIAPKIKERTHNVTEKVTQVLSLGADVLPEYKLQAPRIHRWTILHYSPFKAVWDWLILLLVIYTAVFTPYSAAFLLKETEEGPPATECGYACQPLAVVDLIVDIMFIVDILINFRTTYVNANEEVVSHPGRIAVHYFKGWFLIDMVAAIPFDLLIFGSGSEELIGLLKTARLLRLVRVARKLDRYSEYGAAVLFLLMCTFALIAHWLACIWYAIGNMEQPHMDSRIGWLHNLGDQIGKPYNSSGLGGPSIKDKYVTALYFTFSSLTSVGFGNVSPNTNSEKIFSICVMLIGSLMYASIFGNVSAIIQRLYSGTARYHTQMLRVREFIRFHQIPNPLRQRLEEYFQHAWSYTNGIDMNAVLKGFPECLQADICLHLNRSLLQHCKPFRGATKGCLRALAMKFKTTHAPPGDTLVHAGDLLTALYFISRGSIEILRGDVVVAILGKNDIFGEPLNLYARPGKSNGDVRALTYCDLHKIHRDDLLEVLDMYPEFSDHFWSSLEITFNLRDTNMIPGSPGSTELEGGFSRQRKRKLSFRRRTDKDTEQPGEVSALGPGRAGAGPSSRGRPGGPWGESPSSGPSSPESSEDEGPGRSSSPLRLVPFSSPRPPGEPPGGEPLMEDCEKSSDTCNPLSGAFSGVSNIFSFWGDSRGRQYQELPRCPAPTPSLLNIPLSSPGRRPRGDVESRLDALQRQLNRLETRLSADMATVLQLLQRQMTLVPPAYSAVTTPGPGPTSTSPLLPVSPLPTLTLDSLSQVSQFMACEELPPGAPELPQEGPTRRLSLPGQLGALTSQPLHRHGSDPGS
Turning to `O=C(Cc1cccs1)N1CCCC(c2nc3c(nnn3Cc3ccc(F)cc3)c(=O)[nH]2)C1` (centres unmarked), the “hERG current change (%, negative = inhibition) at 10uM” value is -35.1%.
The figure for `Cc1ccc(-n2nnnc2SCC(=O)N(CC(C)C)c2c(N)n(CC(C)C)c(=O)[nH]c2=O)cc1` is 1.14%.
For `CC1CCCCN1C(=O)CN1C(=O)CN(C)C(=O)c2ccccc21` (centres unmarked), the “hERG current change (%, negative = inhibition) at 10uM” value came to 1.26%.
`CC(NCCC(Cc1ccccc1)c1ccco1)c1ccccc1` (centres unmarked): the “hERG current change (%, negative = inhibition) at 10uM” value is -22%.
As for `CCOC(=O)c1ccc(-n2c(CCC(=O)O)ccc2-c2ccc(F)cc2)cc1`, the figure is 0.749%; as for `O=C(/C=C/c1ccc2c(c1)OCO2)Nc1cccnc1`, -66.4%; as for `C/C(N)=C(/C#N)C(=O)COC(=O)c1cccc(O)c1`, -2.77%.
For `NC(=O)CCN1CCCCC1`, the “hERG current change (%, negative = inhibition) at 10uM” value is on record as -13.9%.
The figure for `CC(=O)Nc1ccc(S(=O)(=O)Nc2nc3ccccc3nc2Nc2ccccc2)cc1` is 10.3%.
`Cc1nn(Cc2ccccc2)c(N)c1-c1ccccc1`: the “hERG current change (%, negative = inhibition) at 10uM” value is -9.15%.
The figure for `COc1ccccc1C(=O)Nc1ccc(S(=O)(=O)N2CCC(C)CC2)cc1` is 6.98%.
As for `CC(C)Cc1nc(N2CCN(C(=O)c3ccccc3)CC2)c(C#N)c2c1CCC2`, the figure is -24.1%.
The figure for `CC(=O)c1cccc(-n2nnnc2SCC(=O)Nc2cccc(NC(=O)c3ccco3)c2)c1` is -60.7%; for `CC(C)CC(C(=O)Nc1oc(-c2ccco2)c(-c2ccco2)c1C#N)N1C(=O)c2ccccc2C1=O` (centres unmarked) it is 5.81%; for `Nn1cc(-c2ccccc2)nc1SCC(=O)Nc1ccc(S(N)(=O)=O)cc1` it is -6.29%.
As for `CS(=O)(=O)Cc1cccc(C(=O)NN(c2ccccc2)c2ccccc2)c1`, the “hERG current change (%, negative = inhibition) at 10uM” value was determined as 4.18%.
For `Cc1cc(NC(=O)CCC(=O)N(CC(=O)NC2CCCC2)c2ccc(C(C)C)cc2)no1`, the “hERG current change (%, negative = inhibition) at 10uM” value is listed as -6.14%.
As to `c1ccc(-c2cn3nc(-c4ccccc4)sc3n2)cc1`, the “hERG current change (%, negative = inhibition) at 10uM” value is on record as -6.66%.
Take `O=C(NCC(=O)c1ccccc1)OCc1ccc([N+](=O)[O-])cc1`: the “hERG current change (%, negative = inhibition) at 10uM” value was -18.6%.
As for `N#C/C(N=Nc1ccccc1O)=N\Nc1ccccc1O`, the figure is 15.9%; as for `COc1cc(OC)c(-c2nnc(-c3ccc(OC)c(OC)c3OC)o2)cc1OC`, 1.26%; as for `CCC(=O)Nc1ccc2c(c1)ncn2-c1ccccc1C`, 22.2%.
As for `O=C(COC(=O)CNC(=O)c1ccc(Cl)cc1Cl)Nc1ccc(N2CCOCC2)cc1`, the “hERG current change (%, negative = inhibition) at 10uM” value amounted to 12.3%.
The figure for `COc1ccc(C2c3c(ncn(CCCN4CCOCC4)c3=N)Oc3ccc4ccccc4c32)cc1OC` (centres unmarked) is -51.3%.
Regarding `COc1cc(C(=O)NCCC(=O)NC2CCC(C)CC2)cc(OC)c1OC` (centres unmarked), the “hERG current change (%, negative = inhibition) at 10uM” value turned out to be 26.1%.
On to `CC(Cc1ccco1)NC(=O)c1ccc(C(F)(F)F)cc1` (centres unmarked), for which the “hERG current change (%, negative = inhibition) at 10uM” value stood at 17.8%.
The figure for `CNC(=O)CSc1nc2[nH]ncc2c(=O)[nH]1` is 10%; for `Cc1cc(C)nc(SCC(=O)NC2CCCC2)n1` it is -3.16%; for `O=C(CCCc1nc(-c2ccc(Cl)cc2)no1)NCC1CCCO1` (centres unmarked) it is -7.24%.
`CN1CCCC1CCNS(=O)(=O)c1ccc(Br)cc1` (centres unmarked): the “hERG current change (%, negative = inhibition) at 10uM” value is listed as -28.6%.
The figure for `Cc1c(Cl)cccc1NC(=O)NCCCN1CCCC1=O` is 3.76%; for `[Br-].c1ccc(N2CC[N+]3(CCCC3)CC2)nc1` it is -5.05%.
As for `O=C(NC(Cc1ccccc1)C(=O)O)/C(=C\c1ccc(F)cc1)NC(=O)c1ccccc1` (centres unmarked), the figure is 11.1%; as for `COc1ccc(N=Cc2c(O)c3ccccc3n2C(C)=O)cc1`, -0.828%.
As for `O=C(C1=C(O)C(=O)N(c2nccs2)C1c1ccccc1)c1cc2ccccc2o1` (centres unmarked), the figure is 19.7%; as for `Cc1cc(-c2cc(-c3ccccc3)on2)nc(NC2CCCC2)n1`, 15.7%.
On to `O=C(CC(NC(=O)c1ccccc1Cl)c1ccccc1)NCCc1ccc(Cl)cc1` (centres unmarked), for which the “hERG current change (%, negative = inhibition) at 10uM” value stood at 6.33%.
In the case of `CC(=O)c1ccc(C(=O)N2CCc3c([nH]c4ccccc34)C2c2ccccn2)s1` (centres unmarked), the “hERG current change (%, negative = inhibition) at 10uM” value turned out to be 6.12%.
In the case of `O=c1[nH]c(O)c(/C=C2\C=NN=C2c2ccccc2)c(=O)[nH]1`, the “hERG current change (%, negative = inhibition) at 10uM” value is 6.54%.
The figure for `COc1cc(N(C)C)c([N+](=O)[O-])cc1C(=O)NC(C)CNc1ccc([N+](=O)[O-])cc1Cl` (centres unmarked) is -2.36%; for `COc1ccc(NC(=O)C(=O)NCC2CCCN2S(=O)(=O)c2ccc(C)cc2)cc1` (centres unmarked) it is -24.7%.
As for `COc1cccc(CN(C)C(=O)c2cccc(OC3CCN(C4CCCC4)CC3)c2)c1`, the figure is -55.1%; as for `Cc1ccc(NC(=O)CN(C)CCOc2ccccc2)c([N+](=O)[O-])c1`, 10.2%.
As for `C/C=C(\C)C(=O)NCCN1C2=NC[C@H](Cc3ccccc3)N2C[C@H]1Cc1ccc(O)cc1`, the figure is 1.99%; as for `CCCC(=O)Nc1nnc(SCC(=O)NC2CC2)s1`, 11.4%.
With `CC(C)C12CN3CCN(CC(C3)C1O)C2` (centres unmarked), the “hERG current change (%, negative = inhibition) at 10uM” value is on record as -1.29%.
The figure for `Cc1onc(-c2ccccc2)c1C(=O)N1CCOCC1` is 7.71%; for `CC1CCN(CCCNC(=O)c2cc3sccc3n2C)CC1` it is -57.3%.
`C=CCN(c1ccc(C(=O)NCCSc2ccccc2)cc1)S(C)(=O)=O`: the “hERG current change (%, negative = inhibition) at 10uM” value was -1.01%.
The figure for `COc1cccc(/C=C/C(=O)Nc2ccc(OC)nc2)c1` is -26.1%; for `Cc1cccc(-n2cc(CNCCc3nc(C)cc(C)n3)c(-c3cccc(F)c3)n2)c1` it is -67.9%; for `O=C(CCC(=O)N1CCSc2ccccc21)NCc1cccc(Br)c1` it is -17.9%.
As for `COc1cc(NC(=O)CCN2CCN(CCO)CC2)cc(OC)c1`, the figure is 9.89%; as for `CN(C)/C=C1/OC(=O)C(C#N)=C1c1ccc(Cl)cc1`, 2.54%; as for `Cc1ccsc1CNCCc1ccc(F)cc1`, -14.8%.
Take `COc1ccc(CN2CCNC(=O)C2CC(=O)NCc2cn[nH]c2-c2ccccc2)c(F)c1` (centres unmarked): the “hERG current change (%, negative = inhibition) at 10uM” value is recorded as -1.07%.
